Reference: PubChem BioAssay AID686978 (National Center for Advancing Translational Sciences (NCATS), 2013)
“And” between values parts separate entries of the source, which are not always exact repeats. Equal values may be shown once. Hit rate of the full screen: of about 420,000 compounds, about 64,000 (15%) were called active. Inconclusive means that the source gave no clear call. Such entries were picked first, then a sample of the others. The call rests on the fitted dose curve; in most records, active means well fitted inhibition curve with a large enough effect; inconclusive means small, poorly fitted or top-dose-only effect; inactive means flat fitted curve, though single readings scatter. No potency is given beside an inconclusive call; the fits are too rough.

experiment: qHTS for Inhibitors of human tyrosyl-DNA phosphodiesterase 1 (TDP1): qHTS in cells in absence of CPT; conditions: DT40 Tdp1-/- hTDP1 cells, no CPT, ATP luminescence, 48 h; activity change, negative = growth inhibition: at 46.2 µM (top of the series); further: nearly all actives have a fitted effect of over 55% in size
In short: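 Compound effects on proliferation are scored in DT40 Tdp1-/-;hTDP1 cells in the absence of CPT. ATP levels (CellTiter-Glo luminescence) are recorded after a ≥48 hr, 37 °C incubation.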
On the % scale 0 is the no-effect control and ±100 the full control effect; potency means the concentration at half of the fitted maximal effect; tags describe the fitted curve by direction and shape.

Structure (SMILES)	Potency	activity change, negative = growth inhibition
CCOC(=O)C1=CN(Cc2ccco2)S(=O)(=O)N(C)C1c1ccc(C(F)(F)F)cc1 (centres undefined)	inconclusive [inhibitor, single point]	–
O=C(Nc1ccccc1)SC1CCCCC1	inactive	–
C=CC[C@@H](CC(=O)OC(C)(C)C)C(=O)OC[C@@H]1CCCN1C(=O)[C@@H](CC=C)CC(=O)N[C@H](CO)Cc1ccccc1	inconclusive [inhibitor, single point]	–
CCCCSC(=S)NC1CCS(=O)(=O)C1 (centres undefined)	active: 11.6 µM	–
O=C(CSCc1ccc(F)cc1)N1CCc2c([nH]c3ccccc23)C1c1ccccc1 (centres undefined)	active: 14.6 µM	–
CC1CCC(C(C)C)C(OC(=O)COC(=O)c2cc(O)ccc2N)C1 (centres undefined)	inconclusive [inhibitor, single point]	–
CCCOc1ccc(Cn2c(=O)sc3ccccc32)cc1	inconclusive [inhibitor, partial curve]	–
CN(C)/C=C/C(=O)c1ccn(S(=O)(=O)c2ccccc2)c1	inactive	–
O=C(CCc1nc2cccnc2n1Cc1ccccc1)NCCc1ccc(Cl)cc1	active: 20.6 µM	–
O=C(Nc1cccc(F)c1)c1ccc(-c2ccccc2Cl)o1	active: 16.4 µM	–
COc1ccccc1OCCOc1ccc(C(=O)c2ccccc2)cc1	inconclusive [inhibitor, single point]	–
CCc1cccc2c(C(=O)CN3C(=O)C(=O)N(C4CCCC4)C3=O)c[nH]c12	inactive	–
COc1ccc(NC(=O)Nc2nnc(Cc3ccc(F)cc3)s2)cc1	active: 25.9 µM	–
COc1ccc(-c2nnc(OCc3nc4ccccc4n3C)c3ccccc23)cc1	inconclusive [inhibitor, single point]	–
CC1CCN(C(=O)c2[nH]cnc2C(=O)N[C@@H](CCCCNC(=O)OC(C)(C)C)C(=O)OC(C)(C)C)CC1	inconclusive [inhibitor, partial curve, poor fit]	–
COc1ccc(N2CCN(Cc3cc(=O)oc4cc(C)c(Cl)c(C)c34)CC2)cc1	active: 9.2 µM	–
Cc1cccc(N2CCN(C(=O)c3ccc4c(c3)N(Cc3cccc(Cl)c3)C(=O)c3ccccc3S4=O)CC2)c1C (centres undefined)	active: 5.17 µM	–
Cc1ccc(C)c2[nH]c(=O)c(CN(CC3CCCO3)C(=O)NC3CCCCC3)cc12 (centres undefined)	inconclusive [inhibitor, partial curve]	–
Cc1ccc(-c2nc(SCC(=O)Nc3cc(C)on3)c3c(=O)n(C)c(=O)n(C)c3n2)cc1	active: 16.4 µM and active: 14.6 µM	–
O=C(CC(=O)Nc1ccccc1F)Nc1ccc2nc3n(c(=O)c2c1)CCCCC3	inconclusive [inhibitor, partial curve]	–
COc1ccc(CC(=O)N/N=C/c2sccc2C)cc1	inactive	–
Cc1nc(-c2ccccc2)sc1C(=O)Nc1ccccc1F	inactive	–
Nc1ccc(N2CCN(C(=O)c3ccco3)CC2)cc1	active: 14.1 µM and active: 18.4 µM	–
O=C(/C=C/Nc1ccccc1F)c1cccs1	inconclusive [inhibitor, single point]	–
COC(=O)C1C(=O)C2=C(CC1C)Nc1ccccc1NC2c1ccc(C)s1 (centres undefined)	inconclusive [inhibitor, single point]	–

Structure (SMILES)	Potency	activity change, negative = growth inhibition
COc1cc(/C=C2/C(=N)N3C=CSC3=NC2=O)ccc1OCCCOc1ccccc1C	inconclusive [inhibitor, single point]	–
c1ccc(CNc2ncnc3sc4c(c23)CCC4)nc1	active: 14.6 µM	–
CN(Cc1cn(Cc2cccc(Cl)c2)nn1)C1CN(Cc2cn(Cc3cccc(Cl)c3)nn2)S(=O)(=O)C1 (centres undefined)	inconclusive [inhibitor, partial curve]	–
COc1cc(/C=C2/C(=N)N3OC(C)=CC3=NC2=O)ccc1OC(=O)c1ccco1	inactive	–
CCn1ncc(CNC(=O)CCCSc2nc(-c3ccco3)cc(C(F)(F)F)n2)c1C	inconclusive [inhibitor, single point]	–
Cn1nnnc1SCCNC(=O)C1CCC(=O)N(CCc2cccc(F)c2)C1 (centres undefined)	inactive	–
CC1CCCN(CCCNC(=O)c2nn(C)c3c2CSc2ccccc2-3)C1 (centres undefined)	inconclusive [inhibitor, single point]	–
CCn1cc(C(=O)N2CCCC(CO)(Cc3ccccc3C)C2)cn1 (centres undefined)	inactive	–
CN(C)Cc1c(C(=O)N/N=C/c2ccccc2OCc2c(F)cccc2Cl)nnn1-c1nonc1N	active: 5.17 µM	–
CC(c1ccc(F)cc1)n1c(-c2cccs2)n[nH]c1=S (centres undefined)	inactive	–
COc1cccc(-c2cc(N3CCN(C(=O)c4ccoc4)CC3)n3nc(-c4cccc(Cl)c4)cc3n2)c1	active: 8.2 µM	–
COc1ccc(/C(N)=N/OC(=O)CSc2ccccc2)cc1OC	inactive	–
Cc1ccc(N2C(=O)N(C(C)C)C(C)(C)CC2(C)O)cc1 (centres undefined)	inconclusive [inhibitor, partial curve]	–
CCOC(=O)c1csc(NC(C)=O)n1	inactive	–
O=C(COC(=O)c1cccc(S(=O)(=O)Nc2ccc(F)cc2)c1)NCCN1C(=O)CSC1=O	inactive	–
O=C(Nc1sc2c(c1C(=O)O)CCC2)c1ccccc1F	inconclusive [inhibitor, single point]	–
COc1ccc(NS(=O)(=O)NC(=O)c2c(C)n(C)c3ccccc23)cc1	inactive	–
CCC(c1nnnn1C1CCCCC1)N1CCN(C(=O)c2ccco2)CC1 (centres undefined)	–	inconclusive: -37.2% [inhibitor]
CCn1c(SCC(=O)N(C)C2CCCCC2)nc2cc(S(N)(=O)=O)ccc21	inactive	–
CCc1ccc(N2CC(C(=O)Nc3ccc(S(=O)(=O)Nc4nccs4)cc3)CC2=O)cc1 (centres undefined)	inactive	–
COc1ccc(C(=O)Oc2ccc(F)cc2C(=O)/C=C/c2ccc(OC)c(OC)c2)cc1	active: 13 µM	–
CC1(C)CC(=O)C=C(NCCCN2CCCC2=O)C1	inactive	–
CCC(Oc1ccccc1OC)C(=O)Nc1ccc2c(c1)OCO2 (centres undefined)	inactive	–
CCc1cc(=O)oc2cc(C)cc(OCC(=O)NCc3cccnc3)c12	inconclusive [inhibitor, single point]	–
